Among the data in the RNAGym collection of RNA variant scans (doi:10.7554/elife.90254) are self-cleavage values, retold here.

Sequences and labels used below:
B1: OR4K15 (parent)
chain: GUUAACGGUCAUAGGCCAUGGAAACUAGGAGCACCAUUUCGCUGCCAGUGAAGAAAUGAACAAAGAAAAUCUGGGCCAGGCAGGCAUCAAAAGAAAUAGUCUUGCGCUCAACCAGAAAGUCUGUAAUCAUUUUAAGGGUA

The source gives no read counts; variants with many changes may rest on few reads.

The variants in this series derive from B1. As to the kind of experiment: self-cleavage, relative activity (ratio to wild type); higher = more cleavage; in vitro, sequencing; the parent is a self-cleaving ribozyme.
Turning to GUUAACGGUCACAGACCAUGGAAACUAGGAGCACCAUCGCGCUGCCAGUGAAGAAAUGAACAAAGAAAAUCUGGGCCAGGCAGGCAUCAAAAGAAAUAGUCUUGCGCUCAACCAGAAAGUCUGUAAUCAUUUUAAGGGUA, the self-cleavage was 1.26.

In the case of GUUAACGGUCACAGGCCAUGGAAACUAGGAGCACCAUUUCGCUGCCAGUGAAGAAAUGAACAAAGAAAAUCUGGGCCAGGCAGGCAUCGAAAGAAAUAGUCUUGCGCUCAACCAGAAAGUCUGUAGUCAUUUUAAGGGUA, the self-cleavage turned out to be 1.25.

As to GUUAACGGUCACAGGCCACAGAAACUAGGAGCACCAUUUCGCUGCCAGUGUGGAAAUGAACAAAGAAAAUCUGGGCCAGGCAGGCAUCAAAAGAAAUAGUCUUGCGCUCAACCAGAAAGUCUGUAGUCAUUUUAAGGGUA, the self-cleavage amounted to 0.08.

With GUUAACGGUCACAGGCCAUGGAAACUAGGAGCACCAUUUCGCUGCCAGUGAAGAAAUGAACAAAGAAAAUCUGGGCCAGGCAGGCAUCAAAAGAGAUAGUCUUGCGCUCAACCGGAAAGUCUGUAACCAUUUUAAGGGUA, the self-cleavage stood at 0.08.

Regarding GUUAACGGUCACAGGCCAUGGAAACUAGGAGCACCAUUUCGCUGCCAGUGAAGAAACGAACAAAGAAAAUCUGGGCCAGGCAGGCAUCAAAUGAAAUAGUCUUGCGCUCAACCAGAAAGCCUGUAAUCAUUUUAAGGGUA, the self-cleavage is 0.88.

With GUUAACGGUCACAGGCCAUGGAAACUAGGAGCACCAUUUCGCUGCCAGUGAAGAAAUGAACAAAGAAAAUCUGGGCCAGGCAGGCAUCAAGAGAAAUAGUCUUGCGCCCAACCAGAAAGUCUGUAAUCAUUUUAAGGGUA, the self-cleavage was 0.07.

Regarding GUUAACGGUCACAGGCCAUGGAAACUAGGAGCACCAUUUCGCAGCCAGUGAAGAAACGAACAAAGAAAAUCUGGGCCAGGCAGGCAUCAAAAGAAAUAGUCUUGCGCUCAACCGGAAAGUCUGUAAUCAUUUUAAGGGUA, the self-cleavage was found to be 0.22.

On to GUUAACGGUCACAGGCCAUGGAAACUAGGAGCACCAUUUCGCUGCCAGUGAAGAAAUGAACAAAGAAAAUCUGGGCCAGGCAGGCAUCAAAAGAAGUAGUCUUGCGCUCAACCAGAAAGUCUGCAAUCAUUUUAAGGGUA, for which the self-cleavage stood at 0.6.

GUUAACGGUCACAGGCCAUGGAAACUAGGAGCACCAUUUCGCUGCCAGUGAAGAAAUGAACAAAGAAAAUCUGGGCCAGGCAGGCAUCAACAGAAAUAGUCUUGCGCUCAACCAGAAAGUCUGUAGUCAUUUUAAGGGUA: the self-cleavage was determined as 1.49.

With GUUAACGGUCACAGGCCAUGGAAACUAGGAGCACCAUUUCGCUGCCAGUUAAGAAACGAACAAAGAAAAUCUGGGCCAGGCAGGCAUCAAAAGAAAUAGUCUUGCGCUCAACCAGAAAGUCUGUAAUCAUUUUAAGGGUA, the self-cleavage amounted to 0.91.

GUUAACGGUCACAGGUCAUGGAAACUAGGAGCACCACUUCGCUGCCAGUGAAGAAAUGAACAAAGAAAAUCUGGGCCAGGCAGGCAUCAAAAGAAAUAGUCUUGCGCUCAACCAGAAAGUCUGUAAUCAUUUUAAGGGUA: the self-cleavage is 0.98.

On to GUUAACGGUCACAGGCCAUGGAAACUAGGAGCACCAUUUCGCUGCCAGUGAAGAAAUGAACAAAGAAAAUCUGGGCCAGGCAGGCAUCAAAAGAAAUAGCCUUGCGCUCAACCAGAAAGUCUGUAAUCAUCUUAAGGGUA, for which the self-cleavage was found to be 2.57.

With GUUAACGGUCACAGGCUAUGGAAACUAGGAGCACCAUUUCGCUGCCAGUGAAGAAAUGAACAAAGAAAAUCUGGGCCAGGCAGGCACCAAAAGAAAUAGUCUUGCGCUCAACCAGAAAGUCUGUAAUCAUUUUAAGGGUA, the self-cleavage was 1.33.

For the variant GUUAACGGUCACAGGCCAAGGAAACUAGGAGCACCAUUUCGCUGCCAGUGAAGAAAUGAACAAAGAAAAUCAGGGCCAGGCAGGCAUCAAAAGAAAUAGUCUUGCGCUCAACCAGAAAGUCUGUAAUCAUUUUAAGGGUA, the self-cleavage was 0.74.

Consider GUUAACGGUCACAGGCCAUGGAAACUAGGAGUACCAUUUCGCUGCCAGUGAAGAAAUGAACAAAGAAGAUCUGGGCCAGGCAGGCAUCAAAAGAAAUAGUCUUGCGCUCAACCAGAAAGUCUGUAAUCAUUUUAAGGGUA, for which the self-cleavage was 1.99.

As to GUUAACGGUCACAGGCCAUGGAAAUUAGGAGCACCAUUUCGCUGCCAGUGAAGAAAUGAACUAAGAAAAGCUGGGCCAGGCAGGCAUCAAAAGAAAUAGUCUUGCGCUCAACCAGAAAGUCUGUAAUCAUUUUAAGGGUA, the self-cleavage was 1.15.

Take GUUAACGGUCACAGGCCAUGGAAACUAGGAGCACCAUAUCGCUGCCAGUGAAGAAAUGAGCAAAGAAAAUCUGGGCCAGGCAGGCAUCAAAAGAAAUAGUCUUGCGCUCUACCAGAGAGUCUGUAAUCAUUUUAAGGUUA: the self-cleavage came out at 1.23.

For GUUAACGGUCACAGGCCAUGGAAACUAGGAGCACCAUUUCGCUGCCAAUGAAGAAAUGGACAAAGAAAAUCUGGGCCGGGCAGGCAUCAAAAGAAAUAGUCCUGCGCUCAACCAGAAAGUCUGUAAUCAUUUUAAGGGUA, the self-cleavage was 0.37.

As for GUUAACGGUCACAGGCCAAGGGAACUAGGAGCACCAUUCCGCUGCCAGUGAAGAAAUGAACAAAGAAAAUCUGGGCCAGGCAGGCAUCAAAAGAAAUAGUCUUGCGCUCAACCAGAAAGUCUGUAAUCAUUUUAAGGGUA, the self-cleavage stood at 1.57.

Consider GUUAACGGUCACAGGCCAUGGAAACUAGGAGCACCAUUUCGCUACCAGUGAAGAAAUGAACAAAGAAAAUCUGGGCCAGGCAGGCAUCAAAAGGAAUAGUCUUGCGCUCAACCAGAAAGUCUGUAAUCAUUUUAAGGGCA, for which the self-cleavage worked out at 1.52.

Take GUUAACGGUCACAGGCCAUGGAAACUAGGAGCACCAUUUCGCUGCCAGUGAAGAAAUGAACAAAGAAAAUCUGGGCCAGGCAGGCAUCAAAAGAAAUAGUCUUGCGCUCAACCAGGAAGUCUGUAAUCAUCUUAAGGGUA: the self-cleavage turned out to be 0.34.

With GUUAACGGUCACAGGCCAUGGAAACUAGGAGCACCAUUUCGCUGCCAUUGAAGGAACGAACAAAGAAAAUCUGGGCCAGGCAGGCAUCAAAAGAAAUAGUCUUGCGCUCAACCAGAAAGUCUGUAAUCAUUUUAAGGGUA, the self-cleavage turned out to be 1.22.

In the case of GUUAACGGUCACAGGCCAUGGAAACUAGGAGCACCAUUUCGCUGCCAGUGAAGAAAUGAAUAAAGAAAAUCUGGGCCAGGCAGGCAUCAAAAGAAAUAGUCUUGCGCUCAACCAGAAAGUCUGUAAUCAUUUUAAGGGUG, the self-cleavage was found to be 0.84.

In the case of GUUAACGGUCACAGGCCAUGGAAACUAGGAGCACCAUUUCGCUGCCAGUGAAGAAAUGAACAAAGAAAACCUGGGCCAGGUAGGUAUCAAAAGAAAUAGUCUUGCGCUCAACCCGAAAGUCUGUAAUCAUUUUAAGGGUA, the self-cleavage was 0.03.

Take GUUAACGGUCACAGGCCAUGGAAACUAGGAGCACCACUUCGCUGCCAGUGAAGAAAUGAGCAAAGAAGAUCUGGGCCAGGCAGGCAUCAAAGGAAAUAGUCUUGCGCUCAACCAGAAAGCCUGUAAUCAUUUUAAGGGUA: the self-cleavage came to 0.33.

In the case of GUUAACGGUCACAGGCCAUGGAAACUAGGAGCACCAUAUCGCUGCCAGUGAAGAAAUGAACAAGGAAAAUCUGGGCCAGGCAGGCAUCAAAAGAAAUAGUCUUGCGCUCAACCAGAAAGUCUGUAAUCAUUCUAAGGGUA, the self-cleavage amounted to 1.2.

As for GUUAACGGUCACAGGCCAUGGAAACUAGGAGCACCAUUCCGCUGCCAGUGAAGAAAUGAACAAAGAAGAUCUGGGCCAGGCAGGCAUCAGAAGGAAUAGUCUUGCGCUCAACCAGAAAGUCUAUAAUCAUUUUAAGGGUA, the self-cleavage is 1.01.

GUUAACGGUCACAGGCCAUGGAAACUAGGAGCACCAUCUCGCUGCCAGUGGAGAAGUGAACAAAGAAAAUCUGGGCCGGGCAGGCAUCAAAAGAAAUAGUCUUGCGCUCAACCAGAAAGUCUGUAAUCACUUUAAGGGUA: the self-cleavage amounted to 0.

Consider GUUAACGGUCACAGGCCAUGGAAACUAGGAGCACCAUUUCGCUGCCAGUGAAGAAAUGAACAAAGAAAAUCCGGGCCUGGCAGGCAUCAAAAGAAAUAGUCUUGCGCUCAACCAGAAAGUCUGUAAUCAUUUUAAGGGUA, for which the self-cleavage was 0.17.

Consider GUUAACGGUCACAGGCCAUGGAAACUAGGAGCACCAUUUCGCUGCCAGUGAAGAAAUGAACAAAGAAAAUCUGGGCCAGGCAGGCAUCAAAAGAAAUAGUCUCGCGCUCAACCAGAAAGUCUGUAAUCGUUUUAAGGGUA, for which the self-cleavage was found to be 0.3.

With GUUAACGGUCACAGGCCAUGGAAACAAGGAGCACCAUUUUGCUGCCAGUGAAGAGACGAACAAAGAAAAUCUGGGCCAGGCAGGCAUCAAAAGAAAUAGUCUUGCGCUCAACCAGAAAGUCUGUAAUCAUUUUAAGGGUA, the self-cleavage turned out to be 0.49.

GUUAACGGUCACAGGCCAUGGAAACUAGGAGCACCAUUUCGCUGCCAGUGAAGAAAUGAACAAAGAAAAUCUGGGCCAGGCAGGCAUCAAAAGAAAUCGCCUUGCGCUCAACCAGAGAGUCUGUAAUCAUUUUAAGGGUA: the self-cleavage worked out at 2.8.

For the variant GUUAACGGUCACAGGCCAAGGAAACUAGGAGCACCAUUUCGCUGCCAGUGAAGAAAUGAACAAAGAAAAUCUGGGCCAGGCAGGCAUCAAAAGAAAUAGUCUUGCGCUCAACCAGCAAGUCUGUAAUCAUUUUAAGGGUA, the self-cleavage is 0.17.

GUUAACGGUCAGAGGCCAUGGUAGCUAGGAGCACCAUUUCGCUGCCAGUGAAGAAAUGAACAAAGAAAAUCUGGGCCAGGCAGGCAUCAAAAGAAAUAGUCUUGCGCUCAACCAGAAAGUCGGUAAUCAUUUUAAGGGUA: the self-cleavage stood at 2.05.

Take GUUAACGGUCACAGGCCAUGGAAACUAGGAGCACCAUUUCGCUGCCAGUGAAGAAAUGAACAAAGAAAAUCUGGGCCAGGCAGGCAUCAAAAGAAAUAGUCUUGCGCUCAGCCAGAAAGUCUGUAAUCACUUUAAGGGUA: the self-cleavage amounted to 0.05.

As to GUUAACGGUCACACGCCAUGGAAACUAGGAGCACCAUUUCGCUGCCAGUGAAGAAAUGAACAAAGAAAAUCUGGGCCAGGCAGGCAUCAAAAGAAAUAGUCUUGCGCUCAACCAGGAAGUCUGUAAUCAUUUUAAGGGUA, the self-cleavage was 1.02.

Regarding GUUAACGGUCACAGGCCAUGGAAACUAGGAGCACCAUUUCGCCGCUAGUGAAGAAAUGAACAAAGAAAAUCUGGGCCAGGCAGGCAUCAAAAGAGAUAGUCAUGCGCUCAACCAGAAAGUCUGUAAUCAUUUUGAGGGUA, the self-cleavage was found to be 0.92.

As for GUUAACGGUCACAGGCCAUGGAAACUAGGAGCACCAUUUCGCUGCCAGUGAAGAAAUGAACAAAGAAAAUCUGGGCCAGGCAGGCAUCAAAAGGAAUAGUCUUGCGCUCAGCCAGAAAGUCUGUAAUCAUUUUAAGGGUA, the self-cleavage came to 0.05.

For GUUAACGGUCACAGGCCAUGGAAACUAGGAGCACCAUUUCGCUGCCAGUGAAGAAAUGAACAAAGAAAAUCUGGGCCAGCCAGGCACCAGAAGAAAUAGUCUGGCGCUCAACCAGAAAGUCUGUAAUCAUUUUAAGGGUA, the self-cleavage was determined as 0.02.

Turning to GUUAACGGUCACAGGCCAUGGAAACUAGGAGCACCAUUUCGCUGCCAGUGAAGAAAUGAACAAAGAAAAUCUGGGCCAGGCAGGCAUCAAAAGAAAUAGUCCUGCGCUCAACCGGAAAGUCUGUAAUCAUUUUAAGGGUA, the self-cleavage was 0.08.

In the case of GUUAACGGUCACAGGCCAUGGAAACUAGGAGCACCAUUACGCUGCCAGUGAAGAAAUGAACAAAGAAAAUCUGGGCCAGGCAGGCAUCAAAAGAAAUAGUCUUGCGCUCAACCAGAAAGUCUGUAAUCAUCCUAAGGGUA, the self-cleavage is 1.89.
